# From PubChem BioAssay AID894 (National Center for Advancing Translational Sciences (NCATS), 2007)
# Among all 150,000 compounds or so, about 6,500 (4.3%) were called active. Inconclusive means that the source gave no clear call. Such entries were picked first, then a sample of the others. The call rests on the fitted dose curve; in most records, active means well fitted inhibition curve with a large enough effect (not every such curve was filed as active); inconclusive means small, poorly fitted or top-dose-only effect, or another doubt; inactive means no such curve, though single readings can be large or run the other way. Potencies of inconclusive entries are left out as doubtful fits.
# Molecular target: 15-hydroxyprostaglandin dehydrogenase [NAD(+)] (Homo sapiens) (UniProt P15428)
# Assay: qHTS Assay for Inhibitors of HPGD (15-Hydroxyprostaglandin Dehydrogenase)
# Settings: purified HPGD, NADH fluorescence kinetic, PGE2 substrate; activity change, negative = inhibition: hits give low values
# Procedure, shortened: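 20 nM HPGD preincubated 15 min at room temperature with compound in 50 mM Tris-HCl pH 8, 0.01% Tween 20. Started with 1 mM NAD+ and 30 uM prostaglandin E2; NADH fluorescence (360/450 nm) read 5 times over 30-s intervals, last minus first.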
# On the % scale 0 is the no-effect control and ±100 the full control effect; potency means the concentration at half of the fitted maximal effect; tags describe the fitted curve by direction and shape.
# UniProt P15428, sequence (P15428 whole entry, looked up): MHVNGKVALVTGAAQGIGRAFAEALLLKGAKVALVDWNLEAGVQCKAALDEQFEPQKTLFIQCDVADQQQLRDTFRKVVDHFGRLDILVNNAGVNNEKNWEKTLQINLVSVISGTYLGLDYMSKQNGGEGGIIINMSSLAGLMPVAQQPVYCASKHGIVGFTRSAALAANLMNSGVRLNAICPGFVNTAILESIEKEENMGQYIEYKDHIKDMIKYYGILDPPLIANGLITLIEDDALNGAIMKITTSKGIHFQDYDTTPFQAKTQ
Compound,Potency,"activity change, negative = inhibition"
COC(=O)c1c(C#N)c(N)nc2c1CCC2,"inconclusive [inhibitor, partial curve]",–
Cc1ccccc1N(CC(=O)N/N=C/c1ccc(N(C)C)cc1)C(=O)c1ccccc1,"inconclusive [inhibitor, partial curve]",–
O=C(OCc1nnc(-c2ccccc2)o1)c1cc(S(=O)(=O)N2CCOCC2)c(Cl)cc1Cl,active: 7.94 µM,–
CCC(C)NC(=O)CSC1=Nc2ccccc2C2=NC(c3ccccc3)C(=O)N12 (stereo not drawn),"inconclusive [inhibitor, partial curve]",–
O=C(COc1ccccc1F)NC1CC1,"inconclusive [inhibitor, single point]",–
CCOC(=O)c1c(NC(=O)CC2SC(=NC)N(C)C2=O)sc(C)c1C (stereo not drawn),"inconclusive [inhibitor, partial curve]",–
Cc1nc2c(C(=O)N3CCN(c4ccccn4)CC3)cnn2c(C)c1Cc1cccc(Cl)c1,"inconclusive [inhibitor, single point]",–
COc1ccc(-c2nc(C#N)c(N3CCc4ccccc4C3)o2)cc1OC,"inconclusive [inhibitor, partial curve]",–
O=c1oc2ccccc2n1Cn1c(=O)oc2ccccc21,"inconclusive [inhibitor, partial curve]",–
COc1ccc(OCC(=O)NC(=S)Nc2ccc(N3CCOCC3)c(Cl)c2)cc1,"inconclusive [inhibitor, partial curve]",–
O=C(COC(=O)CNC(=O)c1ccc(Cl)cc1)Nc1ccc2c(c1)OCCO2,"inconclusive [inhibitor, partial curve]",–
COCc1nnc(NC(=O)CSCc2ccccc2)s1,"inconclusive [inhibitor, partial curve]",–
CCCCOCCCNS(=O)(=O)Cc1ccccc1,"inconclusive [inhibitor, partial curve]",–
COc1ccc(-c2c(NC(=O)C(C)C)n(C)c3ccccc3c2=O)cc1,"inconclusive [inhibitor, partial curve]",–
Cc1c(NC(=O)C(C)OC(=O)c2cc(-c3cccc4ccccc34)nc3ccccc23)c(=O)n(-c2ccccc2)n1C (stereo not drawn),"inconclusive [inhibitor, partial curve]",–
Cn1c(SCc2cc(=O)[nH]c3ccccc23)nnc1-c1ccc(Br)cc1,"inconclusive [inhibitor, partial curve]",–
CC(C)N1CC(O)=C(c2nc3ccccc3c(=O)[nH]2)C1=N,"inconclusive [inhibitor, partial curve]",–
COc1ccc2oc(C(=O)CCC(=O)O)c(N)c2c1,"inconclusive [inhibitor, partial curve]",–
O=C(Nc1cccc(Cl)c1)Nc1cc(S(=O)(=O)N2CCOCC2)ccc1N1CCCC1,"inconclusive [inhibitor, partial curve]",–
CCOC(=O)c1[nH]c2ccc(OC)cc2c1NC(=O)NC(C)C,"inconclusive [inhibitor, full curve]",–
COC(=O)CCC(=O)Nc1ccc(OC)cc1,–,inactive: -7.05%
Cc1oc(-c2ccc(Cl)cc2)nc1CN1CCC(C(=O)N2CCc3ccccc3C2)CC1,"inconclusive [inhibitor, single point]",–

Compound,Potency,"activity change, negative = inhibition"
OC1(c2cccc(C(F)(F)F)c2)CCN(c2ccc(-c3ccccc3)nn2)CC1,–,inactive: -10.7%
CCOC(=O)C1(C)C(C(=O)OC)=C(c2ccc(OC)cc2)c2ccccc2N1C(=O)OC (stereo not drawn),"inconclusive [inhibitor, full curve, poor fit]",–
Cc1cc(NCCN2CCOCC2)n2nc(C)c(-c3ccc(Cl)cc3)c2n1,"inconclusive [inhibitor, partial curve]",–
O=C(Cc1ccccc1)NCCCc1ccccc1,"inconclusive [inhibitor, partial curve]",–
CCOc1ccc(NC(=O)CS(=O)CC(=O)NC2CCCc3ccccc32)cc1 (stereo not drawn),–,inactive: -5.8%
COc1ccccc1CNC(=O)CC(C)C,active: 25.1 µM,–
S=c1nc(C2CCCCC2)[nH][nH]1,active: 14.1 µM,–
C=CCN1C(=O)C(O)(CC(=O)c2ccc(OC)cc2OC)c2cc(Br)ccc21 (stereo not drawn),"inconclusive [inhibitor, single point]",–
CCCOc1ccc(C(=O)OCCN(CC)CC)cc1N,–,inactive: -9.66%
Cc1cc(C)c2c(N)c3cccc(C)c3nc2n1,"inconclusive [inhibitor, partial curve]",–
O=C(O)CN(c1ccccn1)S(=O)(=O)c1ccccc1,"inconclusive [inhibitor, partial curve]",–
O=C(CCCc1nc2ccccc2s1)NCc1ccccc1,active: 14.1 µM,–
CCN1CCN(c2cc3c(nn2)Oc2ccccc2N3C)CC1,"inconclusive [inhibitor, partial curve]",–
COc1ccccc1C(=O)Nc1nnc(-c2ccco2)s1,"inconclusive [inhibitor, single point]",–
COc1ccc(/C=C(/NC(=O)c2ccccc2)c2nc3ccccc3[nH]2)cc1OC,"inconclusive [inhibitor, partial curve]",–
CCCCS(=O)(=O)c1sc2nc(C)cc(C)c2c1N,active: 2.82 µM,–
Cc1cc(C(=O)Nc2ccc(S(=O)(=O)Nc3onc(C)c3C)cc2)c(C)o1,"inconclusive [inhibitor, partial curve]",–
COc1ccc(-c2cc(=O)c3ccccc3o2)cc1OC,"inconclusive [inhibitor, partial curve]",–
Cc1cc(C)cc(C(=O)N2CCCCCC2)c1,active: 15.8 µM,–
CCCCNS(=O)(=O)c1ccc2nc(-c3cccs3)cc(C(=O)NCC(OC)OC)c2c1,"inconclusive [inhibitor, partial curve]",–
CN1CC(c2ccccc2)C(c2ccc(Cl)cc2)=N1 (stereo not drawn),"inconclusive [inhibitor, partial curve]",–
